In the supplement of paper PMC8728848:
Some of the results follow.

Columns and labels:
Experiment in all cases: glycan array binding signal (z-score within array); higher = stronger binding
Details in all cases: glycan notation: IUPAC condensed, linker removed
Glc(b1-6)Glc = molecular target: Glc(b1-6)Glc
Procedure, shortened: (§1)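 Arrays were curated from the Consortium for Functional Glycomics database, 3228 in total, and kept only where the protein sequence was available. Binding is expressed as a within-array Z-score. This score was averaged across arrays of the same protein sequence at different concentrations or buffers and across linkers, and negative values can be read as non-binding.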

GlcA(b1-3)Gal = molecular target: GlcA(b1-3)Gal
Procedure, shortened: as §1

GlcA(b1-3)GlcNAc = molecular target: GlcA(b1-3)GlcNAc
Procedure, shortened: as §1

GlcA(b1-6)Gal = molecular target: GlcA(b1-6)Gal
Procedure, shortened: as §1

[1] = molecular target: GlcA3S(b1-3)Gal(b1-4)GlcNAc(b1-2)Man
Procedure, shortened: as §1

[2] = molecular target: GlcA3S(b1-3)Gal(b1-4)GlcNAc(b1-3)Gal(b1-4)Glc
Procedure, shortened: as §1

[3] = molecular target: GlcNAc(a1-3)Gal(b1-4)GlcNAc
Procedure, shortened: as §1

[4] = molecular target: GlcNAc(a1-4)Gal(b1-3)GlcNAc
Procedure, shortened: as §1

[5] = molecular target: GlcNAc(a1-4)Gal(b1-4)GalNAc
Procedure, shortened: as §1

[6] = molecular target: GlcNAc(a1-4)Gal(b1-4)GlcNAc
Procedure, shortened: as §1

[7] = molecular target: GlcNAc(a1-4)Gal(b1-4)GlcNAc(b1-3)Gal(b1-4)Glc
Procedure, shortened: as §1

[8] = molecular target: GlcNAc(a1-4)Gal(b1-4)GlcNAc(b1-3)Gal(b1-4)GlcNAc
Procedure, shortened: as §1

[9] = molecular target: GlcNAc(a1-4)Gal(b1-4)GlcNAc(b1-3)Gal(b1-4)GlcNAc(b1-3)Gal(b1-4)GlcNAc
Procedure, shortened: as §1

[10] = molecular target: GlcNAc(a1-4)Gal(b1-4)GlcNAc(b1-3)Gal(b1-4)[Fuc(a1-3)]GlcNAc(b1-3)Gal(b1-4)[Fuc(a1-3)]GlcNAc
Procedure, shortened: as §1

[11] = molecular target: GlcNAc(a1-6)Gal(b1-4)GlcNAc
Procedure, shortened: as §1

[12] = molecular target: GlcNAc(b1-2)Gal(b1-3)GalNAc
Procedure, shortened: as §1

[13] = molecular target: GlcNAc(b1-2)Man(a1-3)[GlcNAc(b1-2)Man(a1-6)]Man(b1-4)GlcNAc(b1-4)GlcNAc
Procedure, shortened: as §1

[14] = molecular target: GlcNAc(b1-2)Man(a1-3)[GlcNAc(b1-2)Man(a1-6)]Man(b1-4)GlcNAc(b1-4)[Fuc(a1-6)]GlcNAc
Procedure, shortened: as §1

[15] = molecular target: GlcNAc(b1-2)Man(a1-3)[GlcNAc(b1-4)][GlcNAc(b1-2)Man(a1-6)]Man(b1-4)GlcNAc(b1-4)GlcNAc
Procedure, shortened: as §1

[16] = molecular target: GlcNAc(b1-2)Man(a1-3)[GlcNAc(b1-4)][GlcNAc(b1-2)Man(a1-6)]Man(b1-4)GlcNAc(b1-4)[Fuc(a1-6)]GlcNAc
Procedure, shortened: as §1

[17] = molecular target: GlcNAc(b1-2)[GlcNAc(b1-4)]Man(a1-3)[GlcNAc(b1-2)Man(a1-6)]Man(b1-4)GlcNAc(b1-4)GlcNAc
Procedure, shortened: as §1

[18] = molecular target: GlcNAc(b1-2)[GlcNAc(b1-4)]Man(a1-3)[GlcNAc(b1-4)][GlcNAc(b1-2)Man(a1-6)]Man(b1-4)GlcNAc(b1-4)GlcNAc
Procedure, shortened: as §1

B1: GS7807P-bth-537-23-537 (Bacteroides thetaiotaomicron) (protein)
chain: NYENINSNPYEAPDLSADGYALGSAMNNLAGCVVSPDVNTAQFTDCLLGGPLGGYFADSNAGFTETISNFNPKDDWSRVFLKSDKIIPTLYSNLTQVKLVSQNTNDPVPYAIAQVIKVAAMHRVTDAFGPIPYSQIGANGEIATPYDSQEVTYNTFFDELNAAIATLNENSNEQLVPTADYIYKGDVKKWIRFANSLKLRLAIRIAYANPVKAQQMAEEAVNPANGGVIESNADNATWNYFETSQNPIYVATRYNQVQTSDHGGVPCLTGGDTHAAADIICYMNGYKDNRREKFFTKSEWAGQDYVGMRRGIVIPELKTTGHKYSGVNIAPTSPLYWMNAAEVAFLRAEGQAVFNFSMGGTAESFYNQGIRLSFEQWGADGVEDYLKDDVNKPTAYTDPAGTNTYQNALSNITIKWNDSADKEEKQERIIVQKWIANWQLGNEAWADFRRTGYPKLIPVKENKSGGVVDSEKGARRMPYPLDEFVSNKANVEYAIANYLHGADNMATDVWWASKK
- glycan array binding signal (z-score) (Glc(b1-6)Glc): -0.372
- glycan array binding signal (z-score) (GlcA(b1-3)Gal): -0.369
- glycan array binding signal (z-score) (GlcA(b1-3)GlcNAc): -0.366
- glycan array binding signal (z-score) (GlcA(b1-6)Gal): 0.769
- glycan array binding signal (z-score) [1]: -0.341
- glycan array binding signal (z-score) [2]: -0.344
- glycan array binding signal (z-score) [3]: -0.399
- glycan array binding signal (z-score) [4]: -0.394
- glycan array binding signal (z-score) [5]: -0.138
- glycan array binding signal (z-score) [6]: -0.359
- glycan array binding signal (z-score) [7]: -0.375
- glycan array binding signal (z-score) [8]: 0.693
- glycan array binding signal (z-score) [9]: -0.356
- glycan array binding signal (z-score) [10]: -0.189
- glycan array binding signal (z-score) [11]: -0.168
- glycan array binding signal (z-score) [12]: -0.394
- glycan array binding signal (z-score) [13]: -0.374
- glycan array binding signal (z-score) [14]: 0.053
- glycan array binding signal (z-score) [15]: -0.338
- glycan array binding signal (z-score) [16]: -0.383
- glycan array binding signal (z-score) [17]: -0.293
- glycan array binding signal (z-score) [18]: -0.39
